According to PubChem BioAssay (NCATS):
“And” between values parts separate entries of the source, which are not always exact repeats. Equal values may be shown once. Some of the results follow. Shown are side measurements of this screen, not its main read-out; they come without a call. Compounds called inactive in the main read-out are mostly missing here. The note in brackets gives the kind of curve behind each potency; many fits are weak.

test: qHTS Assay for Lipid Storage Modulators (AID 1519); conditions: Drosophila S3 cells, BODIPY lipid droplet/cell ratio, laser cytometry; measured here: lipid (BODIPY) channel AC50; cells loaded with oleic acid
How it was run: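 Cells seeded at 5,000 per well were treated with compounds over a concentration series and loaded with oleic acid (400 uM, as added). Lipid droplet fluorescence (488 nm excitation, 500-530 nm channel) was read by laser-scanning cytometry and normalized to 20 uM Triacsin C.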
Tags give direction and shape of the fitted curve.

Compound	AC50
COc1ccc(NC(=O)/C=C/c2ccc(Cl)cc2)cc1	7.94 µM [falling, full curve, poor fit]
OC[C@H]1O[C@@H](n2cnc3cncnc32)[C@H](O)[C@@H]1O	3.16 µM [falling, full curve, poor fit]
CN1CCN(CCCN2c3ccccc3Sc3ccc(C(F)(F)F)cc32)CC1	35.5 µM [falling, partial curve, poor fit]
CC(=O)SC1CC2=CC(=O)CC[C@]2(C)C2CC[C@@]3(C)[C@@H](CC[C@@]34CCC(=O)O4)C12 (some centres undefined)	0.141 µM [falling, full curve, poor fit]
COC(=O)Nc1nc2ccc(C(=O)c3cccs3)cc2[nH]1	282 nM [rising, full curve, poor fit] and 200 nM [rising, full curve, poor fit]
NCC(O)C1CCCCCCC1 (centres undefined)	1.58 µM [falling, full curve]
CCOC(=O)N1CCC(=C2c3ccc(Cl)cc3CCc3cccnc32)CC1	8.91 µM [rising, full curve] and 39.8 µM [falling, single point]
O=c1cc(-c2ccc(O)cc2)oc2cc(O)cc(O)c12	20 µM [falling, single point] and 39.8 µM [rising, partial curve, poor fit]
CCCCOc1cc(CC2CNC(=O)N2)ccc1OC (centres undefined)	39.8 µM [rising, single point]
CC(=O)OCC1=C(C(=O)O)N2C(=O)[C@@H](NC(=O)Cc3cccs3)[C@H]2SC1	39.8 µM [rising, single point]
O=C1C(SCCO)=C(SCCO)C(=O)c2ccccc21	12.6 µM [falling, full curve, poor fit] and 10 µM [falling, full curve, poor fit]
CC(=O)[C@]1(O)Cc2c(O)c3c(c(O)c2[C@@H](O[C@H]2C[C@H](N)[C@H](O)[C@H](C)O2)C1)C(=O)c1ccccc1C3=O	7.94 µM [falling, full curve, poor fit]
COC1=C(OC)C(=O)c2ccccc2C1=O	22.4 µM [falling, partial curve, poor fit]
CN(C)CCCN1c2ccccc2Sc2ccc(C(F)(F)F)cc21	3.16 µM [falling, full curve, poor fit]
CC/C(=C(\c1ccccc1)c1ccc(OCCN(C)C)cc1)c1ccccc1	14.1 µM [falling, single point] and 15.8 µM [rising, single point] and 31.6 µM [falling, partial curve, poor fit]
NCCCS(=O)(=O)O	39.8 µM [rising, single point]
C[C@]12CC[C@@H]3c4ccc(O)cc4CC[C@H]3[C@@H]1CCC2=O	7.94 µM [falling, full curve, poor fit]
CC(C)(Sc1ccc(CCN(CCCCC2CCCCC2)C(=O)NC2CCCCC2)cc1)C(=O)O	39.8 µM [rising, single point]
COc1cc2ncnc(Nc3cccc(Cl)c3)c2cc1OC	1.78 µM [rising, full curve, poor fit]
CC(C)c1ccc2c(c1)c(SC(C)(C)C)c(CC(C)(C)C(=O)O)n2Cc1ccc(Cl)cc1	3.16 µM [rising, single point] and 7.94 µM [falling, full curve, poor fit]
Oc1ccc(/C=C/c2cc(O)cc(O)c2)cc1	15.8 µM [rising, partial curve, poor fit]
Oc1ccc(-c2nc(-c3ccc(F)cc3)c(-c3ccncc3)[nH]2)cc1	4.47 µM [rising, partial curve]
C[n+]1cc2c3c(ccc2c2ccc4cc5c(cc4c21)OCO5)OCO3	3.16 µM [falling, full curve, poor fit] and 10 µM [falling, partial curve]
Oc1cc(O)cc(/C=C/c2ccc(O)c(O)c2)c1	28.2 µM [rising, partial curve, poor fit]
Fc1ccc(C(c2ccc(F)cc2)N2CCN(C/C=C/c3ccccc3)CC2)cc1	22.4 µM [falling, full curve, poor fit]
O=C1c2c(O)ccc(O)c2C(=O)c2c(NCCNCCO)ccc(NCCNCCO)c21	2.82 µM [falling, partial curve, poor fit]
O=C(Nc1ccc([N+](=O)[O-])cc1Cl)c1cc(Cl)ccc1O	7.08 µM [falling, full curve] and 35.5 µM [falling, single point] and 7.94 µM [falling, full curve, poor fit]

same assay, conditions: Drosophila S3 cells, BODIPY lipid droplet/cell ratio, laser cytometry; measured here: lipid channel max response; cells loaded with oleic acid

Compound	max response
COc1ccc(NC(=O)/C=C/c2ccc(Cl)cc2)cc1	-10.1%
OC[C@H]1O[C@@H](n2cnc3cncnc32)[C@H](O)[C@@H]1O	9.74%
CN1CCN(CCCN2c3ccccc3Sc3ccc(C(F)(F)F)cc32)CC1	-96.6%
CC(=O)SC1CC2=CC(=O)CC[C@]2(C)C2CC[C@@]3(C)[C@@H](CC[C@@]34CCC(=O)O4)C12 (some centres undefined)	-30.7%
COC(=O)Nc1nc2ccc(C(=O)c3cccs3)cc2[nH]1	69.1% and 33.7%
CC(C)(C)NCC(O)COc1cccc2[nH]c(=O)[nH]c12 (centres undefined)	52.9%
NCC(O)C1CCCCCCC1 (centres undefined)	27.6%
C[C@H]1c2cccc(O)c2C(O)=C2C(=O)[C@]3(O)C(O)=C(C(N)=O)C(=O)C(N(C)C)[C@@H]3[C@@H](O)C21 (some centres undefined)	34.3%
CCOC(=O)N1CCC(=C2c3ccc(Cl)cc3CCc3cccnc32)CC1	63.3% and -50.2%
O=c1cc(-c2ccc(O)cc2)oc2cc(O)cc(O)c12	-31.1% and 99.8%
CCCCOc1cc(CC2CNC(=O)N2)ccc1OC (centres undefined)	76.4%
CC(=O)OCC1=C(C(=O)O)N2C(=O)[C@@H](NC(=O)Cc3cccs3)[C@H]2SC1	54%
O=C1C(SCCO)=C(SCCO)C(=O)c2ccccc21	-86.5% and -101%
CC(=O)[C@]1(O)Cc2c(O)c3c(c(O)c2[C@@H](O[C@H]2C[C@H](N)[C@H](O)[C@H](C)O2)C1)C(=O)c1ccccc1C3=O	-105%
COC1=C(OC)C(=O)c2ccccc2C1=O	-93.7%
NS(=O)(=O)c1cc2c(cc1Cl)NC(C1CC3C=CC1C3)NS2(=O)=O (centres undefined)	-31.6%

Compound	max response
O=C(Nc1cccc(C(=O)Nc2ccc(S(=O)(=O)O)c3cc(S(=O)(=O)O)cc(S(=O)(=O)O)c23)c1)Nc1cccc(C(=O)Nc2ccc(S(=O)(=O)O)c3cc(S(=O)(=O)O)cc(S(=O)(=O)O)c23)c1	42.6%
CN(C)CCCN1c2ccccc2Sc2ccc(C(F)(F)F)cc21	57.5%
CC/C(=C(\c1ccccc1)c1ccc(OCCN(C)C)cc1)c1ccccc1	-34.5% and 31.2% and -98.5%
NCCCS(=O)(=O)O	39.2%
C[C@]12CC[C@@H]3c4ccc(O)cc4CC[C@H]3[C@@H]1CCC2=O	-50.5%
CC(C)(Sc1ccc(CCN(CCCCC2CCCCC2)C(=O)NC2CCCCC2)cc1)C(=O)O	62.6%
COc1cc2ncnc(Nc3cccc(Cl)c3)c2cc1OC	50% and -79.3%
CC(C)c1ccc2c(c1)c(SC(C)(C)C)c(CC(C)(C)C(=O)O)n2Cc1ccc(Cl)cc1	-58.5% and -66.6%
Oc1ccc(/C=C/c2cc(O)cc(O)c2)cc1	77.1% and 43.6%
Oc1ccc(-c2nc(-c3ccc(F)cc3)c(-c3ccncc3)[nH]2)cc1	126% and -0.15%
O=C1CCC(c2ccc(-n3ccnc3)cc2)=NN1	45.5%
C[n+]1cc2c3c(ccc2c2ccc4cc5c(cc4c21)OCO5)OCO3	-36.4% and -103% and -79.7%
Oc1cc(O)cc(/C=C/c2ccc(O)c(O)c2)c1	52.3%
Fc1ccc(C(c2ccc(F)cc2)N2CCN(C/C=C/c3ccccc3)CC2)cc1	-73.9%
O=C1c2c(O)ccc(O)c2C(=O)c2c(NCCNCCO)ccc(NCCNCCO)c21	-24.8%
O=C(Nc1ccc([N+](=O)[O-])cc1Cl)c1cc(Cl)ccc1O	-106% and -103% and 11.4%
